Test results as given in PubChem BioAssay (NCI).
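Method: 48-hour compound exposure of cells in 96-well plates, five concentrations, linear interpolation of endpoints. Abbreviation: GI50, concentration required for 50% inhibition of growth. TGI denotes the concentration required for complete inhibition of growth.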

test system: NCI-H322M lung; assay: DTP human tumour cell line panel, 48 h

Point of comparison: `CC(=O)Oc1ccccc1C(=O)NC([Se])=NC1CCCCC1`, GI50 2810 nM. Against it:
- C=Cn1cc(C(=O)O)c(=O)c2cc(F)c(N3CCN(c4nccc(-c5nccs5)n4)CC3)cc21 — 42-fold lower, 66.7 nM
- COC(=O)c1c(C(=O)OC)c2n(c1C)[C@@H]([C@@H](C)[C@H]1CC[C@H]3[C@@H]4CCC5=CC(=O)CC[C@]5(C)[C@H]4CC[C@]13C)SC2 — higher, > 100000 nM

Point of comparison: `C=Cn1cc(C(=O)O)c(=O)c2cc(F)c(N3CCN(c4nccc(-c5nccs5)n4)CC3)cc21`, TGI 2390 nM. Against it:
- CC(=O)Oc1ccccc1C(=O)NC([Se])=NC1CCCCC1 — 3.8-fold higher, 9000 nM
- COC(=O)c1c(C(=O)OC)c2n(c1C)[C@@H]([C@@H](C)[C@H]1CC[C@H]3[C@@H]4CCC5=CC(=O)CC[C@]5(C)[C@H]4CC[C@]13C)SC2 — higher, > 100000 nM
